Assay results: the supplement of paper PMC3334620
In all, about 33,000 sequences were measured (“E-score (-0.5 to 0.5)”: median about -0.035, highest 2% from about 0.35 on). The list shows a part of the results.

Biological target: T1, Pdr3 (UniProt P33200)
T1 sequence: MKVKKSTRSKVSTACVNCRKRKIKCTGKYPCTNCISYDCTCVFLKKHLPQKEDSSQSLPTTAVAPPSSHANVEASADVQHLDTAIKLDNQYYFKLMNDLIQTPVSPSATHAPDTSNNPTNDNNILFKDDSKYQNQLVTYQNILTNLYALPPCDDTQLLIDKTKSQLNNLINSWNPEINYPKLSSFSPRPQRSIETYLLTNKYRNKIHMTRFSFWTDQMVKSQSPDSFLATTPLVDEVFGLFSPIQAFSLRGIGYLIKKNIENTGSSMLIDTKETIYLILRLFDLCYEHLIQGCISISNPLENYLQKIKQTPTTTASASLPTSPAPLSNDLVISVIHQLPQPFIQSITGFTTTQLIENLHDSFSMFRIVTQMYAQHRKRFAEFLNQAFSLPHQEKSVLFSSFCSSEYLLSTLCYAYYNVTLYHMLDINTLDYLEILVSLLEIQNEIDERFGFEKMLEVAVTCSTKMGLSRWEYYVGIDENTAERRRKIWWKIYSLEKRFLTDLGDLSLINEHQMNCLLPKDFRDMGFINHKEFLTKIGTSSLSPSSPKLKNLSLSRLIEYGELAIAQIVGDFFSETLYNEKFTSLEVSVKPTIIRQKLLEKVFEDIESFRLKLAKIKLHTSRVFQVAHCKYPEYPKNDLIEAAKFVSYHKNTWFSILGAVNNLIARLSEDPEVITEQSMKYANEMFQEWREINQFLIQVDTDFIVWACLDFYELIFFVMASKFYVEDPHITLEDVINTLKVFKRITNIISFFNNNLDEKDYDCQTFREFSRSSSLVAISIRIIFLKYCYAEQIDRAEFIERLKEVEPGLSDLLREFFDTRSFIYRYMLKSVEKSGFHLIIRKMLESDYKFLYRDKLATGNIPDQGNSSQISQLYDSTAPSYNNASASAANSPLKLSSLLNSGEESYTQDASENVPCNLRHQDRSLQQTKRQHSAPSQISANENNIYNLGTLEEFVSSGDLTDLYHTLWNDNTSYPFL
Experiment: PBM E-score (8-mer binding enrichment) (E-score (-0.5 to 0.5)); higher = stronger / more preferred TF binding; most listed sequences are background and not binding sites
Conditions: protein concentration: 200 nM; construct: GST-full length
Summary of the method: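 Bound GST-tagged yeast transcription factors, applied at about 100-200 nM to double-stranded universal all-10-mer Agilent arrays, were detected with fluorescent anti-GST. Scans were normalised with masliner. A modified Wilcoxon-Mann-Whitney statistic, the E-score, was assigned to each ungapped eight-base word pooled with its reverse complement by the Universal PBM Analysis Suite.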

Compared with ATTTATAC, AATTGGCC is lower in “PBM E-score” value: 0.16 for the first, -0.0405 for the second.

Going from GCCTTCCA to TATCATGA, the “PBM E-score” value falls from -0.186 to -0.238.

First: GACCCGAC
Second: ACCTTATA
The “PBM E-score” value of the first is higher: 0.21 for the first, -0.029 for the second.

Compared with CCAAACGG, ACCTAGAA is lower in “PBM E-score” value: 0.24 for the first, -0.107 for the second.

Going from CGTTACTC to CCGGTTAA, the “PBM E-score” value rises from -0.111 to 0.275.

Compared with CGCAGGTA, AGCCGGAC is higher in “PBM E-score” value: -0.0643 for the first, 0.345 for the second.

First: GGGGAGAA
Second: CGCCCCCC
The “PBM E-score” value of the first is higher: 0.0174 for the first, -0.141 for the second.

Going from ACAATTCA to TCCTGTAA, the “PBM E-score” value rises from -0.105 to -0.0914.

Going from ACACCTGC to ATGTATTC, the “PBM E-score” value rises from -0.102 to 0.185.

First: ACCTACTG
Second: CTGCGAGA
The “PBM E-score” value of the first is higher: -0.153 for the first, -0.178 for the second.

Compared with GATCACCC, ACTGCTGG is lower in “PBM E-score” value: -0.0514 for the first, -0.234 for the second.

Going from CGTGCACC to ACGAGTAA, the “PBM E-score” value rises from 0.00656 to 0.0153.

First: GCTCAGTA
Second: ATACAGCG
The “PBM E-score” value of the first is higher: -0.0363 for the first, -0.116 for the second.

Going from CTTATAAC to AAAGTTTG, the “PBM E-score” value rises from -0.111 to -0.0158.

Compared with CTACCCAC, CTCGGCCA is higher in “PBM E-score” value: -0.189 for the first, 0.18 for the second.

First: ACGTGCTC
Second: CAGAAGCA
The “PBM E-score” value of the first is higher: 0.00194 for the first, -0.0683 for the second.

Going from ACGGCTCA to ATACTAAC, the “PBM E-score” value rises from 0.039 to 0.148.

Going from AGCGAGAA to ACGTATCG, the “PBM E-score” value falls from -0.065 to -0.108.

First: TCAACAGA
Second: CGCAGTGC
The “PBM E-score” value of the first is higher: 0.0244 for the first, -0.141 for the second.

Going from CGGAATTC to ACCGTGCC, the “PBM E-score” value falls from 0.434 to 0.0603.

Going from CTTATTAC to CCCGGGCG, the “PBM E-score” value rises from -0.161 to 0.421.

First: ACGTACTG
Second: CACGTAGG
The “PBM E-score” value of the first is higher: -0.121 for the first, -0.172 for the second.

First: AGTGGAAA
Second: AAGCAGAC
The “PBM E-score” value of the first is higher: -0.0658 for the first, -0.156 for the second.

Compared with CTTCATAC, ATCAACAC is lower in “PBM E-score” value: 0.0678 for the first, 0.0264 for the second.

Compared with ACATCTAG, TCTAGACA is higher in “PBM E-score” value: -0.155 for the first, -0.138 for the second.

Going from CCGTGCGA to CTGAAAGA, the “PBM E-score” value falls from 0.24 to -0.208.

First: ACCATGGC
Second: AAAAGATA
The “PBM E-score” value of the first is higher: -0.00532 for the first, -0.0521 for the second.

First: CCATCCCG
Second: CTTATCCA
The “PBM E-score” value of the first is higher: 0.31 for the first, -0.00809 for the second.

First: AACTCCTG
Second: AACCGATA
The “PBM E-score” value of the first is lower: -0.193 for the first, 0.0731 for the second.

Compared with TATCTCAA, GATTTGCA is higher in “PBM E-score” value: -0.00609 for the first, 0.0408 for the second.

Going from GGCAATAC to CGAGACCG, the “PBM E-score” value rises from 0.143 to 0.171.

Going from GCCTTCGA to GATGGCGC, the “PBM E-score” value rises from -0.173 to 0.0279.

Going from CGTGGATC to ATAGGCAT, the “PBM E-score” value falls from 0.0458 to -0.0202.

Going from CTGTCAAA to GTCACACA, the “PBM E-score” value rises from -0.186 to -0.0225.

Going from ACTACTAT to GCGAGTCC, the “PBM E-score” value falls from 0.132 to -0.0398.

First: CTGTCGCC
Second: ATCGGGCC
The “PBM E-score” value of the first is lower: 0.0223 for the first, 0.0776 for the second.

Going from GAGCTCTA to CGCCTGGA, the “PBM E-score” value falls from 0.137 to -0.0178.

Going from AATCAACA to CTTGAGCC, the “PBM E-score” value falls from 0.115 to -0.219.

Going from ACGTAAGA to TAATTCAA, the “PBM E-score” value rises from -0.219 to -0.0594.

First: GACTCGAA
Second: CCTAGCTC
The “PBM E-score” value of the first is lower: -0.181 for the first, 0.0142 for the second.

Going from TAATCGAA to GGTTTTAA, the “PBM E-score” value falls from 0.0314 to -0.00211.

Going from AGACCCTG to AACATGCA, the “PBM E-score” value rises from -0.293 to -0.043.

Going from CCACTGCA to CAAGATGG, the “PBM E-score” value falls from -0.0534 to -0.0684.

First: GGCTTGAA
Second: CCAACCCG
The “PBM E-score” value of the first is lower: 0.0178 for the first, 0.282 for the second.

Compared with CACTTTGG, TCGATAAA is higher in “PBM E-score” value: -0.0908 for the first, 0.0139 for the second.

Compared with CATCTAAG, AGACCTAC is lower in “PBM E-score” value: -0.0771 for the first, -0.0832 for the second.

Compared with AGGGGTTA, GCCTTCAC is higher in “PBM E-score” value: -0.144 for the first, -0.0401 for the second.
